# Reference: paper PMC4336329 (PLoS ONE, 2015)
# About 14,000 (4.5%) of roughly 310,000 compounds showed an effect of 50% or more. The effect is printed as a negative number. The list shows a part of the results.
# Target: human ether-à-go-go-related gene (hERG) potassium channel (human, UniProt Q12809)
# Assay: primary screen, population patch clamp on CHO cells stably expressing hERG
# 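Further: peak tail current of the secondary pulse compared with the same well before compound.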
# human ether-à-go-go-related gene (hERG) potassium channel, sequence (Q12809 whole entry, looked up): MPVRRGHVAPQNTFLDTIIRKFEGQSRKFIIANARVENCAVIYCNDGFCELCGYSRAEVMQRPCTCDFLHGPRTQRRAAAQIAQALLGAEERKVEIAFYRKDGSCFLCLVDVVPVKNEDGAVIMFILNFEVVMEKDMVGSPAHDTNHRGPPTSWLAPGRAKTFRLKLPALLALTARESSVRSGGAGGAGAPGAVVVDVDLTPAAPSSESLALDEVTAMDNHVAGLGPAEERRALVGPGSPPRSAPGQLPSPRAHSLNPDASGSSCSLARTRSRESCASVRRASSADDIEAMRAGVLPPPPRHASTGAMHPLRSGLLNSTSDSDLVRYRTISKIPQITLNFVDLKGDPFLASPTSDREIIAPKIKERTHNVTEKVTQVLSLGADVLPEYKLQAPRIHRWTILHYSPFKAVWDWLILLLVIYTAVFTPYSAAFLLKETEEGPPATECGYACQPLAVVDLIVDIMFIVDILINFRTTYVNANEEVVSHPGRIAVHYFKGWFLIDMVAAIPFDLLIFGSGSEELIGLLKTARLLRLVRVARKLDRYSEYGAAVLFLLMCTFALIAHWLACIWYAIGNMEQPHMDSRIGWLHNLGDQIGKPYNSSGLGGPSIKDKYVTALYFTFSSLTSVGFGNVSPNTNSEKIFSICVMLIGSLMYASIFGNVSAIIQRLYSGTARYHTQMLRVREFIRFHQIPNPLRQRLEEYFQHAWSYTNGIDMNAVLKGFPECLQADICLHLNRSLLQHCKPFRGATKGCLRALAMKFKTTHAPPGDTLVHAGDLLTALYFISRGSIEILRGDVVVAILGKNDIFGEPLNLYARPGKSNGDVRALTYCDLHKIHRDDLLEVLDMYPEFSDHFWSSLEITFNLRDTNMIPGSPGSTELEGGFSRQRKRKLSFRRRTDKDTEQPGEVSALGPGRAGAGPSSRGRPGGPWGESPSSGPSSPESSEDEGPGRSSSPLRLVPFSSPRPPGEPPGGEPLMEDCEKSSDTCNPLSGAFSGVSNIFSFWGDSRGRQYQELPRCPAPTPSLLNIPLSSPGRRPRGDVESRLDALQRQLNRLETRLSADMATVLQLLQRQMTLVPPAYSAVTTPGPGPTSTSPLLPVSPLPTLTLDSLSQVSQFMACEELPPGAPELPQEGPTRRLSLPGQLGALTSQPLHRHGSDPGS
row,SMILES,"hERG current change (%, negative = inhibition) at 10uM [%]"
1,O=C(c1cc(F)ccc1F)C1CCCN(Cc2cccc(Cl)c2)C1 (stereo not shown),4.01
2,Cc1nc(NC(=O)/C=C/c2ccccc2)sc1C(=O)Nc1ccccc1,17.2
3,COc1ccc2[nH]c(C)c(CCN3C(=O)C4C5C=CC(C5)C4C3=O)c2c1 (stereo not shown),6.01
4,COc1ccccc1N(CC(=O)NCC1CCCO1)C(=O)CNS(=O)(=O)c1ccc(Cl)cc1 (stereo not shown),3.24
5,CC(=O)N1CC[n+]2c(-c3ccc(Cl)cc3Cl)csc21.[Br-],-21.5
6,COc1cccc(-c2nc(N3CCN(c4ccccc4)CC3)c3ccccc3n2)c1O,0.912
7,CC(=O)Nc1ccc(SC[C@H](Cc2ccccc2)N2CCN(CC(C)C)CCC2=O)cc1,-44.2
8,C#CCOCCOCCOCCNc1nc(N2CCOCC2)nc(N2CCN(C(=O)[C@H](CCCCN)n3cc([C@@H](N)CC(C)C)nn3)CC2)n1.Cl,3.88
9,COc1ccc(CCNC(=O)Cc2cccc(C(F)(F)F)c2)cc1OC,5.75
10,O=C1CC(c2ccccc2)Cc2nc3ncnn3cc21 (stereo not shown),3.72
11,Cc1ccc(N2C(=O)CS(=O)(=O)CC2=O)cc1,22.9
12,O=S(=O)(Cc1nnnn1-c1ccc(Br)cc1)c1ccc(F)cc1,8.04
13,CSCCC(NC=C1C(=O)OC(C)(C)OC1=O)C(=O)O (stereo not shown),19.4
14,C=C1CCN(C(C(=O)OC)C(C)C)S(=O)(=O)c2ccccc21 (stereo not shown),4.06
15,FC(F)(F)c1nc2ncc(Cl)cc2[nH]1,-6.97
16,CC(=O)Oc1ccc(C(=O)c2ccccc2)c(OC(C)=O)c1,-11.9
17,Nc1ncnc(Nc2cc(C(F)(F)F)cc(C(F)(F)F)c2)n1,5.24
18,CC(=O)N(c1ccccc1)C1CC(C)N(C(=O)c2ccccc2)c2ccccc21 (stereo not shown),-5.97
19,Cc1cccc(NC(=S)N2CCC(NC(=O)C3CCCCC3)CC2)c1,20.4
20,COc1ccc(-c2nc(C3CCCCC3)c3cc(OC)ccc3n2)cc1,3.12
21,C/C(=N\NC(=O)C(O)c1ccccc1)c1ccc(C)s1 (stereo not shown),9.56
22,COc1ccc(OC)c(CNn2c(-c3cccc(C)c3)nc3ccccc3c2=O)c1,6.92

row,SMILES,"hERG current change (%, negative = inhibition) at 10uM [%]"
1,COc1ccc(CCNC(=O)c2cc3ccccn3n2)c(OC)c1OC,-3.41
2,CCn1ccnc1CN(C)Cc1nc(-c2ccc3c(c2)OCO3)no1,-2.93
3,Oc1ccccc1Cn1c(-c2ccccc2O)nc2ccccc21,6.27
4,Cc1cccc(C(C)C)c1NC(=O)COC(=O)c1cc2ccccc2oc1=O,-25.1
5,CC(C)n1c(=O)[nH]c2ccccc21,13
6,C=C1c2cc3c(cc2NC(=S)N1Cc1ccccc1)OCO3,-4.28
7,O=C(OC(C(=O)NC1CCCC1)c1ccccc1F)c1ccco1 (stereo not shown),5.25
8,O=C(NC12CC3CC(CC(C3)C1)C2)c1cccnc1Cl,18.1
9,C/C=C/c1ccc(OCCCCN2CCN(CC)CC2)c(OC)c1.O=C(O)C(=O)O,-29.5
10,Clc1ccc(/C=N/N2CCN(Cc3ccccc3)CC2)cc1,-5.2
11,CC(NC(=O)C1CCCCC1)C(c1cccs1)N1CCOCC1 (stereo not shown),2.17
12,Cc1cc(C)nc(N/N=C2/CCSc3ccc(F)cc32)n1,6.74
13,COc1cc(C(=O)n2cnc3ccccc32)c([N+](=O)[O-])cc1OC,4.75
14,Cc1ccc(S(=O)(=O)N2CCOCC2)cc1NC(=O)CSc1nccn1C,-0.154
15,CC(=O)Nc1cccc(/C(C)=N/NC(=O)c2ccc(NS(=O)(=O)c3cccs3)cc2)c1,0.419
16,c1ccc(-c2nc3cccnc3nc2-c2ccccc2)cc1,-6.36
17,Cc1ccc(CNC(=O)CCSCCC(=O)NCc2ccc(C)cc2)cc1,7.08
18,Cc1cccc(NC(=O)CCC(=O)c2cccs2)n1,12
19,Cc1ccccc1NC(=O)Cc1nc(COC(=O)/C=C/c2ccccc2)cs1,-15.3
20,O=C(c1cc2ncc(CCCl)cn2n1)N1CCCCCC1,8.53
21,CCOc1cc2[nH]c(=S)n(Cc3ccc(C(=O)NCCN(CC)CC)cc3)c(=O)c2cc1OCC,9.79
22,Cc1c(NC(=O)c2ccc(CC(C)C)o2)c(=O)n(-c2ccccc2)n1C,5.35

row,SMILES,"hERG current change (%, negative = inhibition) at 10uM [%]"
1,CN1Cc2cccc3c2C(Cc2ccccc2S3)C1.O=C(O)/C=C\C(=O)O (stereo not shown),-36.6
2,NC(=O)CC(NC(=O)Cc1ccc(Br)cc1)c1ccc(N2CCC(N3CCCC3)CC2)c([N+](=O)[O-])c1 (stereo not shown),15.8
3,Cn1cc(Br)c(-c2cccc(NC(=O)CCC(=O)O)c2)n1,3.43
4,CC(=O)Nc1ccc(NC(=O)C2CCC(N3C(=O)C4C5C=CC(C6CC56)C4C3=O)CC2)cc1 (stereo not shown),12.9
5,Cc1cccc(C)c1OCC(=O)N(Cc1ccco1)C1CCS(=O)(=O)C1 (stereo not shown),-23.3
6,O=C(Oc1ccccc1)c1ccc2nccnc2c1,-3.95
7,Cc1onc(-c2c(F)cccc2Cl)c1C(=O)Nc1nc2ccccc2[nH]1,-0.407
8,O=C(Nc1nnc(C2CCCCC2)s1)C1CC(=O)N(c2ccccc2)C1 (stereo not shown),9.68
9,COc1cc2c(c3oc(=O)cc(CC(=O)O)c13)CCC(C)(C)O2,-5.45
10,Nc1nonc1-n1nnc(C(=O)N/N=C/c2ccccc2)c1CN1CCc2ccccc21,12.2
11,Cc1nc2ncnn2c(C)c1CCC(=O)O,26
12,COc1cc(NC(=O)COc2cccc3c2OC(C)(C)C3)cc(OC)c1OC,-6.09
13,O=S1(=O)CCN2N=C(C3CC3)SC2=N1,13.1
14,CN1C(=O)C(O)(c2nnc(-c3ccccc3)o2)c2ccccc21 (stereo not shown),17.4
15,O=C(COC(=O)c1cnccn1)NCCc1ccc(Cl)cc1Cl,11.6
16,Cc1cccc(/C(N)=N/OC(=O)c2ccccc2Cl)c1,1.52
17,Cc1cccc(OCC(=O)NCCCNC(=O)c2ccccn2)c1,8.85
18,CCOc1ccccc1C(=O)OCC(=O)Nc1cc(Cl)ccc1Oc1ccccc1,8.18
19,CCOc1ccc(CN2C(=O)c3ccccc3C2=O)cc1C(=O)N1CCC(C(N)=O)CC1,16.8
20,O=C(CSc1ncccn1)NN=C1CCCCCC1,-0.0675
21,Cc1cc(C(=O)CN2C(=O)C(=O)N(Cc3ccccc3)C2=O)c(C)n1CC1COc2ccccc2O1 (stereo not shown),4.75
22,COc1ccc(/C=C2\NC(=O)C(C=NCc3ccccc3)=C2O)cc1,3.89

row,SMILES,"hERG current change (%, negative = inhibition) at 10uM [%]"
1,Cc1coc2c1C(=O)C(=O)c1c-2ccc2c(C)cccc12,8.76
2,O=C(O)c1cccc(-c2nnn(Cc3ccccc3)n2)c1,1.67
3,COc1ccccc1C(=O)N/C(=C/c1cccc([N+](=O)[O-])c1)C(=O)Nc1cccc(C(=O)O)c1,13.2
4,COc1cc2c(cc1OC)[C@H](C)N(C(=O)COc1ccccc1)CC2,14.6
5,COc1ccccc1/C=C/C=N/N1CCN(Cc2ccccc2)CC1,-8.94
6,CC(C)C1N=C2c3ccccc3N=C(SCC(=O)c3ccc(O)c(O)c3)N2C1=O (stereo not shown),-23.1
7,Cc1ccc(NS(=O)(=O)c2ccc3c(c2)n(C)c(=O)n3C)cc1,-32.1
8,O=S(=O)(Nc1cccc(Cl)c1)c1ccc2oc(=S)[nH]c2c1,25.1
9,COCCNC(=O)Cn1cnc2sc(C)c(S(=O)(=O)N3CCN(c4ccccc4OC)CC3)c2c1=O,4.02
10,CCNC(=O)NS(=O)(=O)c1cnccc1Nc1cccc(Cl)c1,25.1
11,CCC(CC)C(=O)Nc1nnc(S(=O)(=O)N2c3ccccc3CC2C)s1 (stereo not shown),2.8
12,Cc1cc(OCC(=O)NC2CCN(Cc3ccccc3)CC2)c2c(C)cc(=O)oc2c1,-21.4
13,CCOC(=O)c1ccccc1NC1c2ccccc2C(=O)N1c1ccc(C)cn1 (stereo not shown),-2.46
14,Cc1nc2ccccc2n1CC(=O)NC1CCCCCC1,5.61
15,Cc1sc(N)c(C(=O)c2ccccc2)c1C,9.41
16,CCCn1c(NC(=O)c2ccccc2)nc2ccccc21,-2.52
17,CCOC(=O)c1[nH]c(C)c(C(=O)Nc2ccc(C)c(F)c2)c1C,1.5
18,Cc1ccc(S(=O)(=O)CC(=O)Nc2nc3ccccc3s2)cc1,16.9
19,CCOc1ccccc1CNC(=O)C1Cc2cc(S(=O)(=O)N3CCCCC3)ccc2N1C(C)=O (stereo not shown),-17.9
20,COc1ccc(OC)c(-c2cc(C(=O)NCc3cccs3)no2)c1,-9.23
21,Cc1sc2ncnc(OCC(=O)N3CCN(S(=O)(=O)c4ccc(Cl)cc4)CC3)c2c1C,-15
22,CN(Cc1nc2ccccc2[nH]1)C(=O)C1CCC(=O)N(CCc2cccc(F)c2)C1 (stereo not shown),4.23
